From ChEMBL document CHEMBL4888484, “Replenishing the malaria drug discovery pipeline: Screening and hit evaluation of the MMV Hit Generation Library 1 (HGL1) against asexual blood stage Plasmodium falciparum ,using a nano luciferase reporter read-out” (2022) come the findings set out here.

Each structure is given as a SMILES string. In all, about 150,000 compounds went through this assay and about 540 (0.36%) showed an effect of 50% or more. The list shows a part of the results.

In this assay the test system is Plasmodium falciparum. Description: Primary screen in NF54 nanoGlo assay, in single point, at 2uM, 72h; a lower Z score goes with more inhibition. The class given is functional, Erythrocyte. To be noted: timepoint 72 hour.
What is called % Inhibition is the change of the read-out against control, counted positive when it falls. Take `O=C(NCc1cc[nH]n1)Nc1cn[nH]c1`: the “% Inhibition” value is -9% and the Z score is listed as 1.39.
On to `COCCn1c(C)cnc1CC1CCN(C(=O)c2cnccn2)CC1`, for which the “% Inhibition” value was determined as 9% and the Z score is listed as -1.74.
The like results for `Nc1cc(-c2ccc3c(c2)OCO3)ccn1` were, in that order, -17% and 2.25.
For `C[C@@H](NCCCn1ccnc1)c1ccc(Cl)cc1` the same measures were -4% and 0.5.
For `N#Cc1c(N2CC[C@H](OCCN3CCCCC3)C2)nc2ccccn12` the same measures were -8% and 1.05.
On to `CCOc1ccc(-c2c[nH]c(-c3cncn3C)n2)cc1OCC`, for which the “% Inhibition” value is reported as -11% and the Z score turned out to be 2.07.
Consider `CN1CCCN(C[C@@H]2CN(c3cccc(C(F)(F)F)n3)C[C@@H]2CO)CC1`, for which the “% Inhibition” value was 0% and the Z score was 0.03.
As for `Cc1ccsc1-c1nccn1[C@H]1CS(=O)(=O)C[C@@H]1O`, the “% Inhibition” value was -10% and the Z score was 1.49.
Turning to `CN(C(=O)c1cn(C)cn1)C1CN(c2ccc3nncn3n2)C1`, the “% Inhibition” value stood at 1% and the Z score is reported as -0.11.
The like results for `COCCNC(=O)NC(Cc1ccc2c(c1)OCO2)Cc1ccc2c(c1)OCO2` were, in that order, -8% and 1.54.
For the compound `Cn1cc(Nc2ccc(C3CC3)nn2)cn1`, the “% Inhibition” value is 3% and the Z score is on record as -0.62.
For `c1cc2c(cc1CN1CCNCC1)CCC2` the same measures were -5% and 0.6.
Turning to `COc1cccc(-c2nc3c(s2)CN(C(=O)Nc2cc(C)cc(C)c2)CC3)c1`, the “% Inhibition” value was found to be 2% and the Z score is reported as -0.21.
Consider `N#Cc1ncn(CCN2C(=O)c3ccccc3C2=O)c1C#N`, for which the “% Inhibition” value is recorded as -8% and the Z score came out at 1.14.
The like results for `CCOc1ccc(Cc2nc(-c3oc4ccc(C)cc4c3C)no2)cc1OCC` were, in that order, -1% and 0.17.
For `Cc1ccc2nc(C(=O)N3CC(c4ccncc4)C3)c(F)n2c1` the same measures were -20% and 1.9.
On to `COc1ccc(CN2CCC(c3cc[nH]n3)CC2)cn1`, for which the “% Inhibition” value turned out to be 7% and the Z score is listed as -1.26.
The like results for `O=C(c1cc(-c2cccc(Cl)c2)n[nH]1)N(CCN1CCCC1)C1CCOCC1` were, in that order, 1% and -0.08.
`C[C@H]1CCCCN1C(=O)CN1CCN(c2cc(Br)cnc2C(N)=O)CC1`: the “% Inhibition” value was -7% and the Z score is given as 0.71.
As to `Cc1cc(Cn2ccnc2-c2[nH]cnc2C)on1`, the “% Inhibition” value stood at 8% and the Z score is given as -1.49.
Take `CCc1nc(N[C@H]2COCC[C@@H]2Oc2ccc(CO)cc2)ncc1C`: the “% Inhibition” value is reported as -6% and the Z score is listed as 0.96.
Turning to `CO[C@H](c1nc(Cc2ccc3[nH]ncc3c2)no1)C1CC1`, the “% Inhibition” value is listed as -41% and the Z score turned out to be 4.82.
For `O=C(NCc1ccccn1)c1c[nH]nc1-c1ccccc1`, the “% Inhibition” value was -12% and the Z score worked out at 1.59.
As to `O=C(c1ccc(-c2cn(-c3ccccc3)cn2)cc1)N1CCOC[C@@H](O)C1`, the “% Inhibition” value is on record as 5% and the Z score is recorded as -0.8.
The like results for `Cc1ccc(C(=O)NCc2cc(COC(C)(C)C)on2)nc1C` were, in that order, -9% and 1.39.
The like results for `CCCn1c(C(=O)NCc2ccncc2)cc2cc(NS(=O)(=O)c3ccc(Cl)cc3)ccc21` were, in that order, -8% and 0.98.
Take `CCCc1csc(-c2cc(N)ccn2)n1`: the “% Inhibition” value is recorded as -22% and the Z score came to 2.32.
Consider `Oc1c(-c2n[nH]c(C(F)(F)F)c2-c2cnn(-c3ccccc3)c2)ccc2c1OCCO2`, for which the “% Inhibition” value was 11% and the Z score is on record as -1.41.
Turning to `C[C@H](O)CN(C(=O)c1cc(F)cc2ccoc12)C1CC1`, the “% Inhibition” value is -1% and the Z score came to 0.19.
As for `c1c(N2CCCCC2)c2nonc2c2nonc12`, the “% Inhibition” value is recorded as -16% and the Z score stood at 1.43.
Regarding `COc1ccccc1-n1nc(CN(C(=O)c2cccs2)C(C)C)c2c1CCN(Cc1ccccc1F)C2`, the “% Inhibition” value is given as -7% and the Z score was found to be 0.92.
On to `Cc1cc(Cl)c2c(c1)[C@@H](NCCn1cc(C)cn1)CCCO2`, for which the “% Inhibition” value is -10% and the Z score was found to be 1.45.
Turning to `COc1cccc(Oc2nc(N3CCN(C)CC3)nc3c2CN(C(=O)Nc2ccccc2)CC3)c1`, the “% Inhibition” value turned out to be 33% and the Z score is given as -0.83.
For `O=C(Cc1n[nH]c(=O)c2ccccc12)N1CCc2ccccc2C1`, the “% Inhibition” value is -2% and the Z score was 0.28.
For `NC(=O)c1ccnc(Oc2ccccc2CN2CCCCC2)c1` the same measures were -15% and 1.68.
Turning to `O=C(c1cccc(-c2ccccc2O)c1)N1CCCN(C2CCCC2)CC1`, the “% Inhibition” value is 0% and the Z score was found to be 0.04.
On to `COCCC[C@H]1CCCCN1S(=O)(=O)c1cc(-c2ccno2)ccc1C`, for which the “% Inhibition” value is recorded as 9% and the Z score is listed as -1.26.
For `CCOC1CCN(C(=O)c2nc3cccnc3[nH]2)CC1` the same measures were -10% and 1.26.
As to `COc1cccc(N2CCN(S(=O)(=O)c3cc(-c4cc(C)no4)ccc3OC)CC2)c1`, the “% Inhibition” value amounted to 1% and the Z score was -0.12.
For `Cc1cccc(NC(=O)Cn2cnc3c(nnn3C)c2=O)c1` the same measures were -14% and 2.23.
For `C[C@@H](CNC1CCN(c2ccc(F)c(F)c2)CC1)Oc1cccnc1` the same measures were -1% and 0.17.
For `Cc1nc(-c2cc3ccccc3nc2N2CCN(Cc3ccccc3)CC2)no1` the same measures were -7% and 1.32.
In the case of `Cc1nc(CNc2cc(F)c(F)cc2F)no1`, the “% Inhibition” value is 2% and the Z score is on record as -0.2.
